What follows are compounds tested on MLKL phosphorylation, HT29-L23 human colorectal adenocarcinoma cells (assay: cells). Details: read-out: pMLKL HCS Cell Assay (IC50, uM).
Work on `COc1ncc(-c2cc(CN3CCN(C)CC3)c3c(N)ncnn23)cc1C(=O)N[C@@H]1CN(C(=O)C2CC(F)(F)C2)C[C@@H]1F` [Example 501, 5-{4-amino-5-[(4-methylpiperazin-1-yl)methyl]pyrrolo[2,1-f][1,2,4]triazin-7-yl}-N-[(3R,4S)-1-(3,3-difluorocyclobutanecarbonyl)-4-fluoropyrrolidin-3-yl]-2-methoxypyridine-3-carboxamide] yielded an IC50 of 0.129 µM.
`COc1ncc(-c2cc(C(F)(F)F)c3c(N)ncnn23)cc1C(=O)N[C@@H]1CN(S(=O)(=O)c2ccccc2C#N)C[C@@H]1F` [Example 502, 5-[4-amino-5-(trifluoromethyl)pyrrolo[2,1-f][1,2,4]triazin-7-yl]-N-[(3R,4S)-1-(2-cyanobenzenesulfonyl)-4-fluoropyrrolidin-3-yl]-2-methoxypyridine-3-carboxamide] was tested, and the IC50 was 0.058 µM.
`COc1ncc(-c2cc(C(F)(F)F)c3c(N)ncnn23)cc1C(=O)N[C@@H]1CN(S(=O)(=O)c2cnc(C)s2)C[C@@H]1F` [Example 503, 5-[4-amino-5-(trifluoromethyl)pyrrolo[2,1-f][1,2,4]triazin-7-yl]-N-[(3R,4S)-4-fluoro-1-[(2-methyl-1,3-thiazol-5-yl)sulfonyl]pyrrolidin-3-yl]-2-methoxypyridine-3-carboxamide] showed an IC50 of 0.206 µM.
`COc1ncc(-c2cc(C(F)(F)F)c3c(N)ncnn23)cc1C(=O)N[C@@H]1CN(S(=O)(=O)c2cccc(F)c2)C[C@@H]1F` [Example 504, 5-[4-amino-5-(trifluoromethyl)pyrrolo[2,1-f][1,2,4]triazin-7-yl]-N-[(3R,4S)-4-fluoro-1-(3-fluorobenzenesulfonyl)pyrrolidin-3-yl]-2-methoxypyridine-3-carboxamide] gave an IC50 of 0.046 µM.
With `COc1ncc(-c2cc(C(F)(F)F)c3c(N)ncnn23)cc1C(=O)N[C@@H]1CN(S(=O)(=O)c2ccc(F)cc2)C[C@@H]1F` [Example 505, 5-[4-amino-5-(trifluoromethyl)pyrrolo[2,1-f][1,2,4]triazin-7-yl]-N-[(3R,4S)-4-fluoro-1-(4-fluorobenzenesulfonyl)pyrrolidin-3-yl]-2-methoxypyridine-3-carboxamide] the IC50 was 0.012 µM.
With `COc1ncc(-c2cc(C(F)(F)F)c3c(N)ncnn23)cc1C(=O)N[C@@H]1CN(S(=O)(=O)c2cccnc2)C[C@@H]1F` [Example 506, 5-[4-amino-5-(trifluoromethyl)pyrrolo[2,1-f][1,2,4]triazin-7-yl]-N-[(3R,4S)-4-fluoro-1-(pyridine-3-sulfonyl)pyrrolidin-3-yl]-2-methoxypyridine-3-carboxamide] the IC50 was 0.094 µM.
`COc1ncc(-c2cc(C(F)(F)F)c3c(N)ncnn23)cc1C(=O)NC1CN(S(=O)(=O)c2ccccc2)C[C@@H]1F` (stereo partly drawn) [Example 507, 5-[4-amino-5-(trifluoromethyl)pyrrolo[2,1-f][1,2,4]triazin-7-yl]-N-[(3R,4S)-4-fluoro-1-(pyridine-3-sulfonyl)pyrrolidin-3-yl]-2-methoxypyridine-3-carboxamide] was tested, and the IC50 was 0.033 µM.
In the case of `COc1ncc(-c2c(F)cc3c(N)ncnn23)cc1C(=O)N[C@@H]1CN(C(=O)C2CC(F)(F)C2)C[C@@H]1F` [Example 508, 5-{4-amino-6-fluoropyrrolo[2,1-f][1,2,4]triazin-7-yl}-N-[(3R,4S)-1-(3,3-difluorocyclobutanecarbonyl)-4-fluoropyrrolidin-3-yl]-2-methoxypyridine-3-carboxamide], the IC50 is reported as 0.11 µM.
In the case of `COc1ncc(-c2c(F)cc3c(N)ncnn23)cc1C(=O)N[C@@H]1CN(C(=O)C2CCOCC2)C[C@@H]1F` [Example 509, 5-{4-amino-6-fluoropyrrolo[2,1-f][1,2,4]triazin-7-yl}-N-[(3R,4S)-4-fluoro-1-(oxane-4-carbonyl)pyrrolidin-3-yl]-2-methoxypyridine-3-carboxamide], the IC50 is reported as 0.315 µM.
`COc1ncc(-c2c(F)cc3c(N)ncnn23)cc1C(=O)N[C@@H]1CN(C(=O)C2CCC(F)(F)CC2)C[C@@H]1F` [Example 510, 5-{4-amino-6-fluoropyrrolo[2,1-f][1,2,4]triazin-7-yl}-N-[(3R,4S)-1-(4,4-difluorocyclohexanecarbonyl)-4-fluoropyrrolidin-3-yl]-2-methoxypyridine-3-carboxamide] showed an IC50 of 0.099 µM.
For `COc1ncc(-c2c(F)cc3c(N)ncnn23)cc1C(=O)N[C@@H]1CN(C(=O)C2CCC(F)(F)C2)C[C@@H]1F` (stereo partly drawn) [Example 511, 5-{4-amino-6-fluoropyrrolo[2,1-f][1,2,4]triazin-7-yl}-N-[(3R,4S)-1-(3,3-difluorocyclopentanecarbonyl)-4-fluoropyrrolidin-3-yl]-2-methoxypyridine-3-carboxamide], the IC50 was 0.041 µM.
`COc1ncc(-c2c(F)cc3c(N)ncnn23)cc1C(=O)N[C@@H]1CN(C(=O)c2ccc(F)cc2)C[C@@H]1F` [Example 512, 5-{4-amino-6-fluoropyrrolo[2,1-f][1,2,4]triazin-7-yl}-N-[(3R,4S)-4-fluoro-1-(4-fluorobenzoyl)pyrrolidin-3-yl]-2-methoxypyridine-3-carboxamide] was tested, and the IC50 was 0.097 µM.
`COc1ncc(-c2c(F)cc3c(N)ncnn23)cc1C(=O)N[C@@H]1CN(C(=O)C2CCC(F)CC2)C[C@@H]1F` (stereo partly drawn) [Example 513, 5-{4-amino-6-fluoropyrrolo[2,1-f][1,2,4]triazin-7-yl}-N-[(3R,4S)-4-fluoro-1-(4-fluorocyclohexanecarbonyl)pyrrolidin-3-yl]-2-methoxypyridine-3-carboxamide] showed an IC50 of 0.184 µM.
With `[2H]C([2H])([2H])Oc1nc(C)c(-c2cc(C(F)(F)F)c3c(N)ncnn23)cc1C(=O)N[C@@H]1CN(C(=O)[C@@](C)(O)C(F)(F)F)C[C@@H]1F` [Example 517, 5-[4-amino-5-(trifluoromethyl)pyrrolo[2,1-f][1,2,4]triazin-7-yl]-N-[(3R,4S)-4-fluoro-1-[(2R)-3,3,3-trifluoro-2-hydroxy-2-methylpropanoyl]pyrrolidin-3-yl]-2-(deutero)methoxy-6-methylpyridine-3-carboxamide] the IC50 was 0.011 µM.
In the case of `[2H]C([2H])([2H])Oc1nc(C)c(-c2cc(C(F)(F)F)c3c(N)ncnn23)cc1C(=O)N[C@@H]1CN(C(=O)C2CC(F)C2)C[C@@H]1F` (stereo partly drawn) [Example 518, 5-[4-amino-5-(trifluoromethyl)pyrrolo[2,1-f][1,2,4]triazin-7-yl]-N-[(3R,4S)-4-fluoro-1-(3-fluorocyclobutanecarbonyl)pyrrolidin-3-yl]-2-(Deutero)methoxy-6-methylpyridine-3-carboxamide], the IC50 is reported as 0.022 µM.
Compound `Nc1ncnn2c(-c3cc(C(=O)N[C@@H]4CN(C(=O)C5(F)CCC5)C[C@@H]4F)c(F)cc3Cl)cc(C(F)(F)F)c12` [Example 521, 5-[4-amino-5-(trifluoromethyl)pyrrolo[2,1-f][1,2,4]triazin-7-yl]-4-chloro-2-fluoro-N-[(3R,4S)-4-fluoro-1-(1-fluorocyclobutanecarbonyl)pyrrolidin-3-yl]benzamide] has an IC50 of 0.044 µM.
`CC(C)(F)C(=O)N1C[C@H](F)[C@H](NC(=O)c2cc(-c3cc(C(F)(F)F)c4c(N)ncnn34)c(Cl)cc2F)C1` [Example 522, 5-[4-amino-5-(trifluoromethyl)pyrrolo[2,1-f][1,2,4]triazin-7-yl]-4-chloro-2-fluoro-N-[(3R,4S)-4-fluoro-1-(2-fluoro-2-methylpropanoyl)pyrrolidin-3-yl]benzamide] was tested, and the IC50 was 0.131 µM.
With `Nc1ncnn2c(-c3cc(C(=O)N[C@@H]4CN(C(=O)C5CCC(F)(F)C5)C[C@@H]4F)c(F)cc3Cl)cc(C(F)(F)F)c12` (stereo partly drawn) [Example 523, 5-[4-amino-5-(trifluoromethyl)pyrrolo[2,1-f][1,2,4]triazin-7-yl]-4-chloro-N-[(3R,4S)-1-(3,3-difluorocyclopentanecarbonyl)-4-fluoropyrrolidin-3-yl]-2-fluorobenzamide] the IC50 was 0.02 µM.
For `Nc1ncnn2c(-c3cc(C(=O)N[C@@H]4CN(C(=O)C5CC(F)(F)C5)C[C@@H]4F)c(F)cc3Cl)cc(C(F)(F)F)c12` [Example 524, 5-[4-amino-5-(trifluoromethyl)pyrolo[2,1-f][1,2,4]triazin-7-yl]-4-chloro-N-[(3R,4S)-1-(3,3-difluorocyclobutanecarbonyl)-4-fluoropyrrolidin-3-yl]-2-fluorobenzamide], the IC50 was 0.118 µM.
`Cc1nc(C)c(-c2cc(C(F)(F)F)c3c(N)ncnn23)cc1C(=O)N[C@@H]1CN(C(=O)C2CC2(F)F)C[C@@H]1F` (stereo partly drawn) [Example 525, 5-[4-amino-5-(trifluoromethyl)pyrrolo[2,1-f][1,2,4]triazin-7-yl]-N-[(3R,4S)-1-(2,2-difluorocyclopropanecarbonyl)-4-fluoropyrrolidin-3-yl]-2,6-dimethylpyridine-3-carboxamide] showed an IC50 of 0.14 µM.
`Cc1nc(C)c(-c2cc(C(F)(F)F)c3c(N)ncnn23)cc1C(=O)N1CCOC(Cc2ccccc2)C1` (stereo not shown) [Example 528, 7-[5-(2-benzylmorpholine-4-carbonyl)-2,6-dimethylpyridin-3-yl]-5-(trifluoromethyl)pyrrolo[2,1-f][1,2,4]triazin-4-amine] was tested, and the IC50 was 0.43 µM.
`Cc1nc(C)c(-c2cc(C(F)(F)F)c3c(N)ncnn23)cc1C(=O)N1CCC[C@@H](Cc2ccc(F)cc2)C1` [Example 529, 7-{5-[(3S)-3-[(4-fluorophenyl)methyl]piperidine-1-carbonyl]-2,6-dimethylpyridin-3-yl}-5-(trifluoromethyl)pyrrolo[2,1-f][1,2,4]triazin-4-amine] gave an IC50 of 0.047 µM.
Work on `Cc1nc(C)c(-c2cc(C(F)(F)F)c3c(N)ncnn23)cc1C(=O)N1CCC[C@H](Cc2ccc(F)cc2)C1` [Example 530, 7-{5-[(3R)-3-[(4-fluorophenyl)methyl]piperidine-1-carbonyl]-2,6-dimethylpyridin-3-yl}-5-(trifluoromethyl)pyrrolo[2,1-f][1,2,4]triazin-4-amine] yielded an IC50 of 0.043 µM.
Compound `Cc1cc(C)c(-c2cc(C(F)(F)F)c3c(N)ncnn23)cc1C(=O)N[C@@H]1CN(C(=O)C2CCOC2)C[C@@H]1F` (stereo partly drawn) [Example 533, 5-[4-amino-5-(trifluoromethyl)pyrrolo[2,1-f][1,2,4]triazin-7-yl]-N-[(3R,4S)-4-fluoro-1-(oxolane-3-carbonyl)pyrrolidin-3-yl]-2,4-dimethylbenzamide] has an IC50 of 0.334 µM.
In the case of `Cc1cc(C)c(-c2cc(C(F)(F)F)c3c(N)ncnn23)cc1C(=O)N[C@@H]1CN(C(=O)C2CCC(F)(F)C2)C[C@@H]1F` (stereo partly drawn) [Example 536, 5-[4-amino-5-(trifluoromethyl)pyrrolo[2,1-f][1,2,4]triazin-7-yl]-N-[(3R,4S)-1-(3,3-difluorocyclopentanecarbonyl)-4-fluoropyrrolidin-3-yl]-2,4-dimethylbenzamide], the IC50 is reported as 0.036 µM.
